Test results: the antibiotic and cytotoxicity screens of Wong et al. (2023)
Some of the results follow.

system: S. aureus RN4220; assay: growth inhibition call (relative growth <= 0.2); details: 50 µM

SMILES | growth inhibition call
C[C@@H]1CCCCO[C@H](CN(C)Cc2ccncc2)[C@H](C)CN([C@H](C)CO)C(=O)c2cc(NC(=O)CCC(F)(F)F)ccc2O1 | inactive
CC(C)NC(=O)Nc1ccc2c(c1)C(=O)N([C@@H](C)CO)C[C@@H](C)[C@@H](CN(C)Cc1ccccc1)OCCCC[C@@H](C)O2 | inactive
C[C@H]1CN([C@@H](C)CO)C(=O)Cc2cc(NC(=O)Nc3ccc(C(F)(F)F)cc3)ccc2O[C@@H]1CN(C)C(=O)Nc1ccc(F)cc1 | inactive
O=C(Cn1cc(COc2ccc(Cl)c(Cl)c2)nn1)NS(=O)(=O)c1cccc(OC(F)F)c1 | inactive
COc1ccc(S(=O)(=O)Nc2ccc3c(c2)C(=O)N([C@@H](C)CO)C[C@H](C)[C@@H](CN(C)S(=O)(=O)c2cn(C)cn2)OCCCC[C@H](C)O3)cc1 | inactive
Cc1cc(C)n(CCC(=O)O)n1 | inactive
C[C@@H]1CCCCO[C@H](CN(C)Cc2ccc3c(c2)OCO3)[C@@H](C)CN([C@@H](C)CO)C(=O)c2cc(NC(=O)Nc3ccc(C(F)(F)F)cc3)ccc2O1 | inactive
COCC#Cc1cnc2c(c1)C(=O)N([C@H](C)CO)C[C@@H](C)[C@@H](CN(C)S(=O)(=O)c1cccc(OC)c1)O2 | inactive
C[C@@H]1CN([C@H](C)CO)C(=O)c2cc(NC(=O)Nc3ccc(C(F)(F)F)cc3)ccc2O[C@@H](C)CCCCO[C@H]1CN(C)S(C)(=O)=O | inactive
C[C@@H]1CCCCO[C@@H](CN(C)S(=O)(=O)c2cccs2)[C@@H](C)CN([C@@H](C)CO)C(=O)c2cc(NS(=O)(=O)c3cn(C)cn3)ccc2O1 | inactive
C[C@@H]1CN([C@H](C)CO)S(=O)(=O)c2ccc(C#CC3CCCCC3)cc2O[C@H]1CN(C)C(=O)Cc1ccncc1 | inactive
CNC[C@H]1Oc2c(NS(=O)(=O)c3cn(C)cn3)cccc2C(=O)N([C@@H](C)CO)C[C@H]1C | inactive
C[C@@H]1CN([C@@H](C)CO)C(=O)c2cccc(N(C)C)c2O[C@@H]1CN(C)S(=O)(=O)c1ccc(Cl)cc1 | inactive
C[C@H](CO)N1C[C@H](C)[C@H](CN(C)S(=O)(=O)c2ccc(F)cc2)Oc2ccc(NC(=O)Nc3ccc(C(F)(F)F)cc3)cc2C1=O | inactive
COc1ccc(NC(=O)N(C)C[C@@H]2Oc3ncc(C#C[C@H](C)O)cc3C(=O)N([C@@H](C)CO)C[C@@H]2C)cc1 | inactive
CC(C)NC(=O)Nc1ccc2c(c1)C(=O)N([C@H](C)CO)C[C@@H](C)[C@H](CN(C)S(=O)(=O)c1ccc(Cl)cc1)O2 | inactive
C[C@H]1CN([C@@H](C)CO)C(=O)c2cc(NS(=O)(=O)c3ccc(Cl)cc3)ccc2O[C@@H]1CN(C)Cc1ccc(C(=O)Nc2ccccc2N)cc1 | inactive
COc1ccc(CNC(=O)C[C@H]2CC[C@H]3[C@@H](COc4ccc(NC(=O)C(C)C)cc4C(=O)N3C)O2)cc1 | inactive
Cc1nnc(SCC2=C(C(=O)O)N3C(=O)[C@@H](NC(=O)Cn4cnnn4)[C@H]3SC2)s1 | active
COC(=O)C1=C(C)NC(C)=C(C(=O)OC)C1 | inactive
C[C@@H]1CN([C@H](C)CO)C(=O)c2cc(-c3cccc(C(=O)N(C)C)c3)cnc2O[C@@H]1CN(C)S(=O)(=O)c1ccc(F)cc1 | inactive
COc1ccc(S(=O)(=O)N(C)C[C@H]2OCCCC[C@@H](C)Oc3ccc(NS(C)(=O)=O)cc3C(=O)N([C@H](C)CO)C[C@@H]2C)cc1 | inactive
Cc1ccc(S(=O)(=O)N2C[C@@H](O)COC[C@H]3O[C@H](CC(=O)NCc4ccccc4Cl)CC[C@@H]32)cc1 | inactive
Nc1nc(=O)n([C@@H]2O[C@H](CO)[C@@H](O)[C@@H]2F)cc1I | inactive
CO[C@H]1CN(C)C(=O)c2ccc(NS(=O)(=O)c3cn(C)cn3)cc2OC[C@H](C)N(CCC(F)(F)F)C[C@H]1C | inactive
COc1cccc(NC(=O)C[C@@H]2CC[C@@H]3[C@@H](COc4ccc(NC(=O)C5CCOCC5)cc4C(=O)N3C)O2)c1 | inactive
O=C(N[C@@H]1CC[C@H](CCNS(=O)(=O)c2ccc(F)cc2)O[C@H]1CO)C1CC1 | inactive
C[C@H](CO)N1C[C@H](C)[C@@H](CN(C)Cc2ccncc2)Oc2ccc(NS(=O)(=O)c3cccs3)cc2C1=O | inactive
Cc1noc(C)c1NC(=O)N(C)C[C@H]1OCCCC[C@@H](C)Oc2ccc(NC(=O)Cc3ccccc3)cc2C(=O)N([C@H](C)CO)C[C@H]1C | inactive
